Experiment [1] has as its target T1, Utp6/Utp18 heterodimer (recombinant) (S. cerevisiae) (UniProt Q02354+P40362).
T1 sequence 1: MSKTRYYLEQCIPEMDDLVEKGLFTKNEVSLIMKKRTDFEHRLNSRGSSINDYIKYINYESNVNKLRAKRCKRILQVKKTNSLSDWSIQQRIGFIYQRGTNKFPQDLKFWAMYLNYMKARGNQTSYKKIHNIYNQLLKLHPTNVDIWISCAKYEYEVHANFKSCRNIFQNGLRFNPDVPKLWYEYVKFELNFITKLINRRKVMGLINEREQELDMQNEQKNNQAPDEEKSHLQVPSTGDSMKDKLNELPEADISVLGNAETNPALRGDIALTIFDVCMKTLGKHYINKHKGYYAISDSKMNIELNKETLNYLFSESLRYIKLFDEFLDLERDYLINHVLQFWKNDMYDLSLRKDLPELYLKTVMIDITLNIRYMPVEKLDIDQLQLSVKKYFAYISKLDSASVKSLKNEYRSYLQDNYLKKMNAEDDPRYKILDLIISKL
T1 sequence 2: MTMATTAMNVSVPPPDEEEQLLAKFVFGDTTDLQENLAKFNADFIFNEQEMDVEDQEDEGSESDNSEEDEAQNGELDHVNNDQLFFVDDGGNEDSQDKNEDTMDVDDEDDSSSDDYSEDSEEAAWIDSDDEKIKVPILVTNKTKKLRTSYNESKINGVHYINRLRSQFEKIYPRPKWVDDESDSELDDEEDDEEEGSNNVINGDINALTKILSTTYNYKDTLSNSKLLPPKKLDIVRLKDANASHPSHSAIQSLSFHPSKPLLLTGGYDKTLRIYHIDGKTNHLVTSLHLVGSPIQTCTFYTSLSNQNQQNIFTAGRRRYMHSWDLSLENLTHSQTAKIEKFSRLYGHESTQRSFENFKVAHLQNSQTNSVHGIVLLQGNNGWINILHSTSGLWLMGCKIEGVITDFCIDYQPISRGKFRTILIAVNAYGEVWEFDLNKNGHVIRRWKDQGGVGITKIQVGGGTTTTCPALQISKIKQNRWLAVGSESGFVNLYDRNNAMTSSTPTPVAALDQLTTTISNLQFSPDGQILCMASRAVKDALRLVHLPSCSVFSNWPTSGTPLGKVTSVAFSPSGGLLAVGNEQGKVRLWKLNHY
Briefly: SEC; 2 μM UtpBΔUtp6ΔUtp18 injected alone, with 4 μM Utp6/Utp18 or with 4 μM Utp6; Superose 6 Increase, 50 mM HEPES-NaOH pH 7.7, 300 mM NaCl, 1 mM EDTA; both purified.

The target of experiment [2] is T1, Utp6/Utp18 heterodimer (recombinant) (S. cerevisiae). The experiment is described as follows: pull-down; His-tagged Utp6, alone or co-expressed with Utp18, as bait on Nickel Sepharose; proteins 1 μM, on ice, 50 mM Hepes-NaOH pH 7.7, 300 mM NaCl, 70 mM imidazole; eluted with 3C protease; Coomassie-stained SDS-PAGE; both purified.
For experiment [3], the target named is T2, His-tagged Utp6 (recombinant) (S. cerevisiae) (UniProt Q02354).
T2 sequence: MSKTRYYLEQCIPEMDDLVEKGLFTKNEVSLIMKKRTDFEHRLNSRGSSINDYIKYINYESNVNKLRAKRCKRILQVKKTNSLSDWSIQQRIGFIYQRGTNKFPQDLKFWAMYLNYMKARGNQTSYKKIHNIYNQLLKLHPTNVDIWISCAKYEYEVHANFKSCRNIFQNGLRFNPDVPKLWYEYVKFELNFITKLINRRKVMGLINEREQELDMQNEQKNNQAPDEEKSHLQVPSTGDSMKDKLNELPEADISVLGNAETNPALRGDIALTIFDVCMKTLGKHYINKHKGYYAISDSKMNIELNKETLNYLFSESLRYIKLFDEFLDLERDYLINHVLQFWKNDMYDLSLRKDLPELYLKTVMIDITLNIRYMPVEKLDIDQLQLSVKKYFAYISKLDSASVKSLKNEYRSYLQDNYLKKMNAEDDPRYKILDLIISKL
Described as above.

The target of experiment [4] is T3, His14-3C-Utp21 (recombinant) (S. cerevisiae) (UniProt Q06078).
T3 sequence: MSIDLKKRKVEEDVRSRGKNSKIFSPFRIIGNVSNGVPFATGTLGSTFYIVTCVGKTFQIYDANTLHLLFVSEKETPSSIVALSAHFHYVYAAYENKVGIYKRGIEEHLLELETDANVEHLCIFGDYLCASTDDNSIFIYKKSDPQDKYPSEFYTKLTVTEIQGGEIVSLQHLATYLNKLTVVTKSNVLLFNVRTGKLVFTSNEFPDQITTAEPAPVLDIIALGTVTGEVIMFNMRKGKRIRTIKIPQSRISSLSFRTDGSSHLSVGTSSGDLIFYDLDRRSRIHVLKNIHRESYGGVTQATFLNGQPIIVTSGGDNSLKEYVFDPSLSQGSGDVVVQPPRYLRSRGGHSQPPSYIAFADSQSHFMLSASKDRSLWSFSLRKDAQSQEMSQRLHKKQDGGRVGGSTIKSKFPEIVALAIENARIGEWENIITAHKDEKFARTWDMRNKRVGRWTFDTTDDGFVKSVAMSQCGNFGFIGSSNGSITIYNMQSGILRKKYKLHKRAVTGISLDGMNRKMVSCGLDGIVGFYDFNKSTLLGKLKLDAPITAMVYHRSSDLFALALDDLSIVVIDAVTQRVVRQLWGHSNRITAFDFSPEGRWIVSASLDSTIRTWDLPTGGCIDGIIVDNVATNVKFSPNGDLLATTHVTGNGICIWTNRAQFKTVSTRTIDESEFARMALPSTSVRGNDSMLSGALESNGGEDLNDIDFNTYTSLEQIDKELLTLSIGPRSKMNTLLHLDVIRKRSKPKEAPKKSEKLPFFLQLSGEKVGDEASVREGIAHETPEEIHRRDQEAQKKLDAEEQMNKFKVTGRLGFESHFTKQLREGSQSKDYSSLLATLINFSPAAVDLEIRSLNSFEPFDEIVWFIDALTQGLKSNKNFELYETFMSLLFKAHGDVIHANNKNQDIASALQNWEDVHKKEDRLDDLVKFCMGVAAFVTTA
The experiment is described as follows: pull-down; Utp6/Utp18/Utp21/Utp1 co-expressed in E. coli; tandem affinity purification via His14-3C-Utp21 and mCherry-3C-Utp6; 3C protease elution; SDS-PAGE.

Experiment [5] addresses T4, mCherry-3C-Utp6 (recombinant) (S. cerevisiae) (UniProt Q02354).
T4 sequence: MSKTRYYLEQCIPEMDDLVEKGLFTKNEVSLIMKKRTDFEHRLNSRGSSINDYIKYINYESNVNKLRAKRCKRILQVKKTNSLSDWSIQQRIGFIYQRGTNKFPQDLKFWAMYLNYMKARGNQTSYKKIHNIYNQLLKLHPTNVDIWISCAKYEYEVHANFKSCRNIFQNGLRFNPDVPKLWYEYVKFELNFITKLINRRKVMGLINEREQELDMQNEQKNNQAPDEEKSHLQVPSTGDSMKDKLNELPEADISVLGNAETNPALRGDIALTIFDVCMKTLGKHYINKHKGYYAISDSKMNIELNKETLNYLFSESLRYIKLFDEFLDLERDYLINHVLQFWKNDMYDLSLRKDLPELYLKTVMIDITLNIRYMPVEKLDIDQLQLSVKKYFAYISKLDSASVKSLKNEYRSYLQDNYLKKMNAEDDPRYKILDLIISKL
Described as above.

Experiment [6] addresses T5, His14-3C-Utp12 (recombinant) (S. cerevisiae) (UniProt Q12220).
T5 sequence: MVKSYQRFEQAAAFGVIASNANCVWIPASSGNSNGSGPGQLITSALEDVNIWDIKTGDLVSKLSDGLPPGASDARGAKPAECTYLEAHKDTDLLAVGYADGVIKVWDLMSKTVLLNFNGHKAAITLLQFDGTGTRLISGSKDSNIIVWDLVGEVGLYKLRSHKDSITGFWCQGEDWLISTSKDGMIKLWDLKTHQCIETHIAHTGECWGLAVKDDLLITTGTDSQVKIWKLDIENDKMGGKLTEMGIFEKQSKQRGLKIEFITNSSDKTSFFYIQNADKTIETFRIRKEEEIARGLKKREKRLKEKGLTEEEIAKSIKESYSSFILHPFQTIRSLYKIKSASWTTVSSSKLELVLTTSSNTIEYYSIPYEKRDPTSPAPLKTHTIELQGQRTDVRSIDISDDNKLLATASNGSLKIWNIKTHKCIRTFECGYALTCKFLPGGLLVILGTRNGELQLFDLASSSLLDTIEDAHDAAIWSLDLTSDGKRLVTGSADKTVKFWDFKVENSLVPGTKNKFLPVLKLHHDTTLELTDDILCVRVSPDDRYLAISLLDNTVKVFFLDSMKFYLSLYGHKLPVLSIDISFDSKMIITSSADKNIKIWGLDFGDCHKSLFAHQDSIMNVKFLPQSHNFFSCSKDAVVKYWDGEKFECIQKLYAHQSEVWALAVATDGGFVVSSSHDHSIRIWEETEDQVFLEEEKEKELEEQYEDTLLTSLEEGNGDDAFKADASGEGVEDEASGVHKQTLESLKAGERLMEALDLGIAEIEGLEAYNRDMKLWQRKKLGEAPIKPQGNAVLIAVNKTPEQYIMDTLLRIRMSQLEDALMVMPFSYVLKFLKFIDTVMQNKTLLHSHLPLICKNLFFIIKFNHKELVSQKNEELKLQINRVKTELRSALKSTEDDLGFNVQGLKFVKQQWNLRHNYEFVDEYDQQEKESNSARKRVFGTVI
The experiment is described as follows: cross-linking; DSS (0.2, 0.4 and 0.8 mM, H12/D12) cross-linking of SEC-purified recombinant UtpBΔUtp6ΔUtp18, 0.2 mg/ml, room temperature, 30 min, 50 mM HEPES-NaOH pH 7.7, 300 mM NaCl, 1 mM EDTA; cross-linked peptides found by mass spectrometry (pLink); both purified.

Experiment [7] concerns the target T5, His14-3C-Utp12 (recombinant) (S. cerevisiae). The experiment is described as follows: SEC; Utp12 and Utp13 co-expressed in E. coli and purified; main peak of the preparative run and analytical run (500 μl of 0.25 μM Utp12/Utp13, Superose 6 Increase, 50 mM HEPES-NaOH pH 7.7, 300 mM NaCl, 1 mM EDTA); both purified.
Experiment [8] shares this target. The experiment is described as follows: SEC; Utp12/Utp13/StrepII-Sumo-Utp21/Utp1 co-expressed in E. coli and purified by the His14 tag on Utp12; main peak fraction of the size-exclusion run; 50 mM HEPES-NaOH pH 7.6, 300 mM NaCl; both purified. A general note: Size exclusion chromatography separates by hydrodynamic size, large species first.

These are yes or no findings as the source states them, for the method shown. For some assays here: In cells and extracts the contact can be indirect. Some results given as binding are weak or reduced against the parent protein; the word gives no strength. For some assays here: Sequences can lack the tags named with a protein.

As to “UtpBΔUtp6ΔUtp18 (recombinant Utp12/Utp13/Utp21/Utp1 heterotetramer) (from UniProt Q12220 1-943; Q05946 1-817; Q06078 1-939; P25635 1-923) (complex)”, the binding result in experiment [1] and in experiment [2] was “binds” each time.

B1: Utp18 (recombinant) (protein, UniProt P40362 1-594)
chain: MTMATTAMNVSVPPPDEEEQLLAKFVFGDTTDLQENLAKFNADFIFNEQEMDVEDQEDEGSESDNSEEDEAQNGELDHVNNDQLFFVDDGGNEDSQDKNEDTMDVDDEDDSSSDDYSEDSEEAAWIDSDDEKIKVPILVTNKTKKLRTSYNESKINGVHYINRLRSQFEKIYPRPKWVDDESDSELDDEEDDEEEGSNNVINGDINALTKILSTTYNYKDTLSNSKLLPPKKLDIVRLKDANASHPSHSAIQSLSFHPSKPLLLTGGYDKTLRIYHIDGKTNHLVTSLHLVGSPIQTCTFYTSLSNQNQQNIFTAGRRRYMHSWDLSLENLTHSQTAKIEKFSRLYGHESTQRSFENFKVAHLQNSQTNSVHGIVLLQGNNGWINILHSTSGLWLMGCKIEGVITDFCIDYQPISRGKFRTILIAVNAYGEVWEFDLNKNGHVIRRWKDQGGVGITKIQVGGGTTTTCPALQISKIKQNRWLAVGSESGFVNLYDRNNAMTSSTPTPVAALDQLTTTISNLQFSPDGQILCMASRAVKDALRLVHLPSCSVFSNWPTSGTPLGKVTSVAFSPSGGLLAVGNEQGKVRLWKLNHY
For B1, the binding entry in experiment [3], in experiment [4] and in experiment [5] was “binds” throughout.

B2: Utp13 (recombinant) (protein, UniProt Q05946 1-817)
chain: MDLKTSYKGISLNPIYAGSSAVATVSENGKILATPVLDEINIIDLTPGSRKILHKISNEDEQEITALKLTPDGQYLTYVSQAQLLKIFHLKTGKVVRSMKISSPSYILDADSTSTLLAVGGTDGSIIVVDIENGYITHSFKGHGGTISSLKFYGQLNSKIWLLASGDTNGMVKVWDLVKRKCLHTLQEHTSAVRGLDIIEVPDNDEPSLNLLSGGRDDIINLWDFNMKKKCKLLKTLPVNQQVESCGFLKDGDGKRIIYTAGGDAIFQLIDSESGSVLKRTNKPIEELFIIGVLPILSNSQMFLVLSDQTLQLINVEEDLKNDEDTIQVTSSIAGNHGIIADMRYVGPELNKLALATNSPSLRIIPVPDLSGPEASLPLDVEIYEGHEDLLNSLDATEDGLWIATASKDNTAIVWRYNENSCKFDIYAKYIGHSAAVTAVGLPNIVSKGYPEFLLTASNDLTIKKWIIPKPTASMDVQIIKVSEYTRHAHEKDINALSVSPNDSIFATASYDKTCKIWNLENGELEATLANHKRGLWDVSFCQYDKLLATSSGDKTVKIWSLDTFSVMKTLEGHTNAVQRCSFINKQKQLISCGADGLIKIWDCSSGECLKTLDGHNNRLWALSTMNDGDMIVSADADGVFQFWKDCTEQEIEEEQEKAKLQVEQEQSLQNYMSKGDWTNAFLLAMTLDHPMRLFNVLKRALGESRSRQDTEEGKIEVIFNEELDQAISILNDEQLILLMKRCRDWNTNAKTHTIAQRTIRCILMHHNIAKLSEIPGMVKIVDAIIPYTQRHFTRVDNLVEQSYILDYALVEMDKLF
With B2, the binding result in experiment [6], in experiment [7] and in experiment [8] was “binds” throughout.
